Laboratory results from PubChem BioAssay AID1956 (SRMLSC, 2009).
Some of the results follow. Shown are side measurements of this screen, not its main read-out; they come without a call.

Assay: enhancers of HSV replication in host cells, fold increase, host cell viability (AID 1956); note: tested in PC3 cells
Conditions: HSV replication augmentation in cells; fold increase: measured here: primary screen fold increase 10 uM, at 10 µM, stronger effect = higher value; viability: measured here: host cell viability series, at 25 µM, stronger effect = lower value

Row | Structure (SMILES) | fold increase | viability [%]
1 | COc1ccccc1NC(=O)c1cc2ccc(O)cc2o/c1=N\O | 1.39 | 79
2 | CCSC1=N/C(=C\C=C2/Oc3ccccc3N2CC)C(=O)S1 | 2.1 | 98
3 | Cc1nc(SCC(=O)O)c(C#N)c2c1CCCC2 | 1.35 | 98.8
4 | CCN(CC)S(=O)(=O)c1ccc(N=Nc2c(C)[nH]n(C(N)=S)c2=O)cc1 | 1.41 | –
5 | Cc1ccc(S(=O)(=O)Nc2nc3ccccc3nc2Nc2cccc(S(=O)(=O)N3CCCC3)c2)cc1 | 1.35 | –
6 | COCCOC(=O)C1=C(C)NC(=O)NC1c1c(Cl)nc2c(C)cccn2c1=O (centres undefined) | 1.86 | 98.8
7 | Oc1ccc(O)c(Cc2nc3ccccc3[nH]2)c1 | 1.35 | 84.5
8 | Cc1cc(/C=C2\NC(=S)N(C)C2=O)ccc1N1CCCC1 | 8.61 | 85.6
9 | COCCn1cc(C(=O)N2CCN(C)CC2)c2c3ccccc3n(C)c2c1=O | 1.44 | 92.8
10 | CCOc1ccc(C2C=C(c3ccc(C)cc3)Nc3ncnn32)cc1 (centres undefined) | 1.96 | 101
11 | O=C(O)c1ccccc1-c1ccc(/C=C/c2cc(C(F)(F)F)[nH]c(=O)n2)o1 | 1.32 | –
12 | CC1(C)CC(C(=O)NCCC(c2ccccc2)c2ccco2)CCO1 (centres undefined) | 1.34 | 94.1
13 | CN(C(=O)c1c(Cl)cnn1C)C12CC3CC(CC(C3)C1)C2 | 1.34 | 94
14 | COc1ccccc1Cn1c(-c2ccco2)nc2nc3ccccc3nc21 | 1.82 | 88.5
15 | CC(C)OCCCNC(=O)c1cc2c(=O)n(C)c3ccccc3c2n1C | 1.32 | 88
16 | O=C1CC(C(=O)N(CC2CCCO2)C(C(=O)NC2CCCCC2)c2ccncc2)CS1 (centres undefined) | 1.32 | 92.7
17 | Cc1cnc(Sc2ncccc2[N+](=O)[O-])nc1 | 1.32 | –
18 | CCN(CC)c1ccc2cc(C(=O)Nc3ccccn3)c(=O)oc2c1 | 1.32 | 101
19 | Cc1ccc(NC2=C/C(=N\S(=O)(=O)c3cccs3)c3ccccc3C2=O)c(C)c1 | 1.92 | –
20 | Cc1ccccc1N1C(=O)C(Cc2ccc(F)cc2)S/C1=C(\C#N)C(N)=O (centres undefined) | 2.31 | 97.4
21 | O=c1c(/C=C(\O)c2ccc(F)cc2)nc2ccccc2n1-c1ccccc1 | 1.44 | 92.1

Row | Structure (SMILES) | fold increase | viability [%]
22 | Oc1ccc(-c2onc3ccc(Cl)cc23)cc1 | 1.58 | 98.5
23 | CCCC1OC23CCCCC2C(C#N)(C#N)C1(C#N)C(=N)O3 (centres undefined) | 1.41 | 103
24 | CN(C)c1ccc(/C=C2\NC(=S)N(Cc3ccccc3)C2=O)cc1 | 2.36 | 89
25 | Cc1nn(C(C)C(=O)NNC(=S)Nc2ccc(F)cc2)c(C)c1[N+](=O)[O-] (centres undefined) | 1.34 | 96
26 | Cc1c(C(=O)NC(C)CN2CCCCC2)oc2ccccc12 (centres undefined) | 1.32 | 104
27 | CCc1ccccc1NC(=S)NC1CC2CCCC(C1)N2Cc1cccs1 (centres undefined) | 1.38 | 87.2
28 | COc1ccc(C2C(C(C)=O)=C(O)C(=O)N2c2nccs2)cc1OC (centres undefined) | 1.33 | 100
29 | O=C(Nc1ccccc1)c1cccc(-c2nnc(-c3ccccc3)o2)c1 | 1.16 | –
30 | CCCCCCCCNC(=O)/C(C#N)=C/c1ccccc1[N+](=O)[O-] | 1.82 | 86.2
31 | Cc1cc(C)nc(SCc2nnc(SCC(=O)O)n2-c2ccccc2)n1 | 1.51 | 99.4
32 | N#C/C(=C\c1ccc(C(=O)O)cc1)c1nc2sc3c(c2c(=O)[nH]1)CCCC3 | 1.93 | –
33 | COc1cccc(-c2nn(-c3ccccc3)cc2CNC(C)Cn2cncn2)c1 (centres undefined) | 1.53 | 90.7
34 | COc1ccc(NC(=O)CSc2ccc3c4c(cccc24)C(=O)c2ccccc2-3)cc1 | 2.89 | 50.8
35 | Cc1ccc(CN2CCNC2=O)cc1 | 1.33 | 97
36 | O=C(O)c1cc(-c2ccc(/C=N/Nc3ccc([N+](=O)[O-])cn3)o2)ccc1Cl | 1.33 | 97.5
37 | COc1ccc(-c2[nH]ncc2CNCC(C)(C)N2CCOCC2)cc1F | 1.6 | 94.8
38 | COc1ccc(C)cc1-n1c(SCC(=O)Nc2cc(C)on2)nc2sc(C)c(C)c2c1=O | 1.22 | –
39 | Cc1cccc2nc3c(nc12)-c1ccccc1C3=O | 1.4 | 92.7
40 | Cc1cc(C)c2cc(C#N)c(SCC(=O)Nc3ccc4c(c3)OCO4)nc2c1 | 1.53 | 96.6
41 | CC(=O)c1sc(C(C)(C)C)cc1NC(=O)CCC(=O)O | 1.36 | 102
42 | CC(C)(C)C(=O)NCCn1ccc2ccccc21 | 1.48 | 95.8

Row | Structure (SMILES) | fold increase | viability [%]
43 | Cc1ccc2cc(NC(=O)Cc3ccccc3)ccc2n1 | 1.33 | 107
44 | C=CCc1cccc(/C=C/c2cc(=O)c3ccccc3[nH]2)c1O | 1.41 | 83.6
45 | CCN1CCN(C2=CC3=CC(=C(C#N)C#N)CCC3CC2)CC1 (centres undefined) | 9.09 | 95.9
46 | Nc1ccc(-n2c(N)c(C(=O)NCc3ccc4c(c3)OCO4)c3nc4ccccc4nc32)cc1 | 1.23 | –
47 | N#C/C(=C\c1ccc(N2CCOCC2)o1)c1nc2ccccc2[nH]1 | 13.9 | 83.9
48 | Nc1ccc(N2CCN(C(=O)c3cccs3)CC2)cc1 | 1.25 | –
49 | CC[n+]1c(/C=C2\Sc3ccccc3N2C)ccc2cccc(C)c21 | 8.43 | 16.6
50 | Cc1ccc(CSc2nnc(CS(=O)Cc3ccc(Cl)cc3Cl)n2C)cc1 (centres undefined) | 1.44 | 87.3
51 | Cc1c(Br)c([N+](=O)[O-])nn1C(C)C(=O)Nc1nccs1 (centres undefined) | 1.37 | 89.1
52 | N#C/C(=C\c1ccc(N2CCCCC2)o1)C(N)=O | 2.39 | –
53 | Cc1cc(/C=C2\SC(=S)N(Cc3ccco3)C2=O)c(C)n1-c1ccccc1 | 1.65 | 97
54 | S=C(Nc1ccc2nc(-c3ccccn3)c(-c3ccccn3)nc2c1)N1CCCCC1 | 1.46 | 84.2
55 | CCCCN(C(=O)CC(c1ccccc1)c1ccccc1)c1c(N)n(CCC)c(=O)[nH]c1=O | 1.32 | –
56 | CC1=CC(=NOC(=O)/C=C/c2ccccc2)C=C(C)C1=O | 1.44 | 94.5
57 | O=C(O)Cc1sc(Nc2ccccc2)nc1-c1cccs1 | 1.57 | 101
58 | NC(=O)c1sc(=S)n2c1[nH]c(=O)c1sccc12 | 1.96 | 104
59 | CCOc1ccc2[nH]c(=O)c(CN(CCO)C(=O)c3ccc(Br)cc3)cc2c1 | 1.18 | –
60 | O=C(CSc1ncccn1)Nc1ncc(C(F)(F)F)cc1Cl | 1.32 | –
61 | Cc1ccc(NC(=S)NNC(=S)NCc2ccccc2)cc1 | 1.21 | –
62 | COc1ccc(C2NC3=C(CCCC3)C(C#N)(C#N)C2(C#N)C#N)cc1 (centres undefined) | 1.43 | 88.3
